Measured values taken from patent EP4691482A1, “LONG-ACTING CALCITONIN ANALOG” (Chengdu Aoda Biotechnology Co., Ltd., priority 2023, dated 2024).
Not every detail of the peptide structures is certain; ends, links or a residue may be inferred. At least one structure is not confirmed: it was looked up by name or label, or the drawing left a doubt.

Molecular target: T1, calcitonin receptors (CTR) (Homo sapiens, UniProt P30988)
T1 construct: expressed in transfected cells; host or cells: cAMP Hunter HEK293-CT-R Gs cell line (HEK293, stably transfected)
T1 sequence (P30988 25-474): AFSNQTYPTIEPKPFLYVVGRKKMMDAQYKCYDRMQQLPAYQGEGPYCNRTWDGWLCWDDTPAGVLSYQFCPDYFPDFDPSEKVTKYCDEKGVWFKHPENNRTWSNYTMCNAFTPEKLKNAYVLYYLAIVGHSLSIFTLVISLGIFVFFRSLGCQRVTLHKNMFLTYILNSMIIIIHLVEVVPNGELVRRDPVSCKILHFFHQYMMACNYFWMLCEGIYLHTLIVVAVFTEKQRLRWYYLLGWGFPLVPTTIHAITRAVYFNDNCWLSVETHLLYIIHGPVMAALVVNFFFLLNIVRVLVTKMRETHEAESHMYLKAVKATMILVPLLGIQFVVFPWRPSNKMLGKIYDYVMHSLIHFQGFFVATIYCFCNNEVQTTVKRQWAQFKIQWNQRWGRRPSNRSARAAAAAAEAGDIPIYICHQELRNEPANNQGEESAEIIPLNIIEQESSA
Experiment: cAMP determination (HTRF, cAMP Dynamic 2 Kit) in cAMP Hunter HEK293-CT-R Gs cell line
Assay type: cell-based
Conditions: HEK293 cell line stably expressing CT-R; intracellular cAMP, HTRF
Source text: Upon activation by a ligand, Gas-coupled GPCRs can upregulate intracellular cAMP level, and cAMP, as a second messenger, can mediate a series of cellular responses. The cAMP Hunter HEK293-CT-R Gs cell line, which overexpresses Gas-coupled calcitonin receptors (CTR), was used. The binding of calcitonin (or an analog thereof) to the overexpressed CTR upregulates intracellular cAMP level. The amount of intracellular cAMP produced after activation by the calcitonin (or an analog thereof) was detected using a cAMP Dynamic 2 Kit to evaluate the biological activity of the calcitonin (or an analog thereof). HEK293 cell line stably expressing CT-R was used. Stably transfected cells were stimulated with various concentrations of agonists. The time-resolved fluorescence resonance energy signal from the cells after stimulation with different doses was measured using HTRF technology, from which the biological activity of the agonist was subsequently calculated.

In order of falling EC50:
1. CC(C)C[C@H](NC(=O)[C@H](CCCCN)NC(=O)CNC(=O)[C@H](CC(C)C)NC(=O)[C@@H](NC(=O)[C@@H]1CSSC[C@H](N)C(=O)N[C@@H](CO)C(=O)N[C@@H](CC(N)=O)C(=O)N[C@@H](CC(C)C)C(=O)N[C@@H](CO)C(=O)N[C@@H]([C@@H](C)O)C(=O)N1)C(C)C)C(=O)N[C@@H](CO)C(=O)N[C@@H](CCC(N)=O)C(=O)N[C@@H](CCC(=O)O)C(=O)N[C@@H](CC(C)C)C(=O)N[C@@H](Cc1c[nH]cn1)C(=O)N[C@@H](CCCCNC(=O)COCCOCCOCCNC(=O)CC[C@H](NC(=O)CCCCCCCCCCCCCCCCCCC(=O)O)C(=O)O)C(=O)N[C@@H](CC(C)C)C(=O)N[C@@H](CCC(N)=O)C(=O)N[C@H](C(=O)N[C@@H](Cc1ccc(O)cc1)C(=O)N1CCC[C@H]1C(=O)N[C@@H](CCCNC(=N)N)C(=O)N[C@H](C(=O)N[C@@H](CC(N)=O)C(=O)N[C@H](C(=O)NCC(=O)N[C@@H](CO)C(=O)NCC(=O)N[C@H](C(=O)N1CCC[C@H]1C(N)=O)[C@@H](C)O)[C@@H](C)O)[C@@H](C)O)[C@@H](C)O [Compound 3, Cys-Ser-Asn-Leu-Ser-Thr-Cys-Val-Leu-Gly-Lys-Leu-Ser-Gln-Glu-Leu-His-Lys(PEG3CH2CO-yGlu-eicosanedioic acid)-Leu-Gln-Thr-Tyr-Pro-Arg-Thr-Asn-Thr-Gly-Ser-Gly-Thr-Pro-NH2]  3.7 pM
2. CC(C)C[C@H](NC(=O)[C@H](CCCCN)NC(=O)CNC(=O)[C@H](CC(C)C)NC(=O)[C@@H](NC(=O)[C@@H]1CSSC[C@H](N)C(=O)N[C@@H](CO)C(=O)N[C@@H](CC(N)=O)C(=O)N[C@@H](CC(C)C)C(=O)N[C@@H](CO)C(=O)N[C@@H]([C@@H](C)O)C(=O)N1)C(C)C)C(=O)N[C@@H](CO)C(=O)N[C@@H](CCC(N)=O)C(=O)N[C@@H](CCC(=O)O)C(=O)N[C@@H](CC(C)C)C(=O)N[C@@H](Cc1c[nH]cn1)C(=O)N[C@@H](CCCCNC(=O)COCCOCCOCCOCCNC(=O)CC[C@H](NC(=O)CCCCCCCCCCCCCCCCCCC(=O)O)C(=O)O)C(=O)N[C@@H](CC(C)C)C(=O)N[C@@H](CCC(N)=O)C(=O)N[C@H](C(=O)N[C@@H](Cc1ccc(O)cc1)C(=O)N1CCC[C@H]1C(=O)N[C@@H](CCCNC(=N)N)C(=O)N[C@H](C(=O)N[C@@H](CC(N)=O)C(=O)N[C@H](C(=O)NCC(=O)N[C@@H](CO)C(=O)NCC(=O)N[C@H](C(=O)N1CCC[C@H]1C(N)=O)[C@@H](C)O)[C@@H](C)O)[C@@H](C)O)[C@@H](C)O [Compound 4, Cys-Ser-Asn-Leu-Ser-Thr-Cys-Val-Leu-Gly-Lys-Leu-Ser-Gln-Glu-Leu-His-Lys(PEG4CH2CO-yGlu-eicosanedioic acid)-Leu-Gln-Thr-Tyr-Pro-Arg-Thr-Asn-Thr-Gly-Ser-Gly-Thr-Pro-NH2]  3 pM

Same assay, conditions: relative to Salmon Calcitonin = 100.0; HEK293 CT-R cAMP

In order of falling “Relative Activity%” value:
1. CC(C)C[C@H](NC(=O)[C@H](CCCCN)NC(=O)CNC(=O)[C@H](CC(C)C)NC(=O)[C@@H](NC(=O)[C@@H]1CSSC[C@H](N)C(=O)N[C@@H](CO)C(=O)N[C@@H](CC(N)=O)C(=O)N[C@@H](CC(C)C)C(=O)N[C@@H](CO)C(=O)N[C@@H]([C@@H](C)O)C(=O)N1)C(C)C)C(=O)N[C@@H](CO)C(=O)N[C@@H](CCC(N)=O)C(=O)N[C@@H](CCC(=O)O)C(=O)N[C@@H](CC(C)C)C(=O)N[C@@H](Cc1c[nH]cn1)C(=O)N[C@@H](CCCCNC(=O)CNC(=O)CNC(=O)CNC(=O)CNC(=O)CC[C@H](NC(=O)CCCCCCCCCCCCCCCCCCC(=O)O)C(=O)O)C(=O)N[C@@H](CC(C)C)C(=O)N[C@@H](CCC(N)=O)C(=O)N[C@H](C(=O)N[C@@H](Cc1ccc(O)cc1)C(=O)N1CCC[C@H]1C(=O)N[C@@H](CCCNC(=N)N)C(=O)N[C@H](C(=O)N[C@@H](CC(N)=O)C(=O)N[C@H](C(=O)NCC(=O)N[C@@H](CO)C(=O)NCC(=O)N[C@H](C(=O)N1CCC[C@H]1C(N)=O)[C@@H](C)O)[C@@H](C)O)[C@@H](C)O)[C@@H](C)O [Compound 13]  271.4%
2. CC(C)C[C@H](NC(=O)[C@H](CCCCN)NC(=O)CNC(=O)[C@H](CC(C)C)NC(=O)[C@@H](NC(=O)[C@@H]1CSSC[C@H](N)C(=O)N[C@@H](CO)C(=O)N[C@@H](CC(N)=O)C(=O)N[C@@H](CC(C)C)C(=O)N[C@@H](CO)C(=O)N[C@@H]([C@@H](C)O)C(=O)N1)C(C)C)C(=O)N[C@@H](CO)C(=O)N[C@@H](CCC(N)=O)C(=O)N[C@@H](CCC(=O)O)C(=O)N[C@@H](CC(C)C)C(=O)N[C@@H](Cc1c[nH]cn1)C(=O)N[C@@H](CCCCNC(=O)COCCOCCNC(=O)COCCOCCNC(=O)CC[C@H](NC(=O)CCCCCCCCCCCCCCCCCCCCC(=O)O)C(=O)O)C(=O)N[C@@H](CC(C)C)C(=O)N[C@@H](CCC(N)=O)C(=O)N[C@H](C(=O)N[C@@H](Cc1ccc(O)cc1)C(=O)N1CCC[C@H]1C(=O)N[C@@H](CCCNC(=N)N)C(=O)N[C@H](C(=O)N[C@@H](CC(N)=O)C(=O)N[C@H](C(=O)NCC(=O)N[C@@H](CO)C(=O)NCC(=O)N[C@H](C(=O)N1CCC[C@H]1C(N)=O)[C@@H](C)O)[C@@H](C)O)[C@@H](C)O)[C@@H](C)O [Compound 21, Cys-Ser-Asn-Leu-Ser-Thr-Cys-Val-Leu-Gly-Lys-Leu-Ser-Gln-Glu-Leu-His-Lys(AEEA-AEEA-γGlu-docosanedioic acid)-Leu-Gln-Thr-Tyr-Pro -Arg-Thr-Asn-Thr-Gly-Ser-Gly-Thr-Pro-NH2]  271.4%
3. CC(C)C[C@H](NC(=O)[C@H](CCCCN)NC(=O)CNC(=O)[C@H](CC(C)C)NC(=O)[C@@H](NC(=O)[C@@H]1CSSC[C@H](N)C(=O)N[C@@H](CO)C(=O)N[C@@H](CC(N)=O)C(=O)N[C@@H](CC(C)C)C(=O)N[C@@H](CO)C(=O)N[C@@H]([C@@H](C)O)C(=O)N1)C(C)C)C(=O)N[C@@H](CO)C(=O)N[C@@H](CCC(N)=O)C(=O)N[C@@H](CCC(=O)O)C(=O)N[C@@H](CC(C)C)C(=O)N[C@@H](Cc1c[nH]cn1)C(=O)N[C@@H](CCCCNC(=O)CNC(=O)CNC(=O)CNC(=O)CC[C@H](NC(=O)CCCCCCCCCCCCCCCCCCC(=O)O)C(=O)O)C(=O)N[C@@H](CC(C)C)C(=O)N[C@@H](CCC(N)=O)C(=O)N[C@H](C(=O)N[C@@H](Cc1ccc(O)cc1)C(=O)N1CCC[C@H]1C(=O)N[C@@H](CCCNC(=N)N)C(=O)N[C@H](C(=O)N[C@@H](CC(N)=O)C(=O)N[C@H](C(=O)NCC(=O)N[C@@H](CO)C(=O)NCC(=O)N[C@H](C(=O)N1CCC[C@H]1C(N)=O)[C@@H](C)O)[C@@H](C)O)[C@@H](C)O)[C@@H](C)O [Compound 12]  243.6%
4. CC(C)C[C@H](NC(=O)[C@H](CCCCN)NC(=O)CNC(=O)[C@H](CC(C)C)NC(=O)[C@@H](NC(=O)[C@@H]1CSSC[C@H](N)C(=O)N[C@@H](CO)C(=O)N[C@@H](CC(N)=O)C(=O)N[C@@H](CC(C)C)C(=O)N[C@@H](CO)C(=O)N[C@@H]([C@@H](C)O)C(=O)N1)C(C)C)C(=O)N[C@@H](CO)C(=O)N[C@@H](CCC(N)=O)C(=O)N[C@@H](CCC(=O)O)C(=O)N[C@@H](CC(C)C)C(=O)N[C@@H](Cc1c[nH]cn1)C(=O)N[C@@H](CCCCNC(=O)CNC(=O)[C@H](CO)NC(=O)CNC(=O)[C@H](CO)NC(=O)CC[C@H](NC(=O)CCCCCCCCCCCCCCCCCCC(=O)O)C(=O)O)C(=O)N[C@@H](CC(C)C)C(=O)N[C@@H](CCC(N)=O)C(=O)N[C@H](C(=O)N[C@@H](Cc1ccc(O)cc1)C(=O)N1CCC[C@H]1C(=O)N[C@@H](CCCNC(=N)N)C(=O)N[C@H](C(=O)N[C@@H](CC(N)=O)C(=O)N[C@H](C(=O)NCC(=O)N[C@@H](CO)C(=O)NCC(=O)N[C@H](C(=O)N1CCC[C@H]1C(N)=O)[C@@H](C)O)[C@@H](C)O)[C@@H](C)O)[C@@H](C)O [Compound 7]  215.9%
5. CC(C)C[C@H](NC(=O)[C@H](CCCCN)NC(=O)CNC(=O)[C@H](CC(C)C)NC(=O)[C@@H](NC(=O)[C@@H]1CSSC[C@H](N)C(=O)N[C@@H](CO)C(=O)N[C@@H](CC(N)=O)C(=O)N[C@@H](CC(C)C)C(=O)N[C@@H](CO)C(=O)N[C@@H]([C@@H](C)O)C(=O)N1)C(C)C)C(=O)N[C@@H](CO)C(=O)N[C@@H](CCC(N)=O)C(=O)N[C@@H](CCC(=O)O)C(=O)N[C@@H](CC(C)C)C(=O)N[C@@H](Cc1c[nH]cn1)C(=O)N[C@@H](CCCCNC(=O)CNC(=O)CC[C@H](NC(=O)CCCCCCCCCCCCCCCCCCC(=O)O)C(=O)O)C(=O)N[C@@H](CC(C)C)C(=O)N[C@@H](CCC(N)=O)C(=O)N[C@H](C(=O)N[C@@H](Cc1ccc(O)cc1)C(=O)N1CCC[C@H]1C(=O)N[C@@H](CCCNC(=N)N)C(=O)N[C@H](C(=O)N[C@@H](CC(N)=O)C(=O)N[C@H](C(=O)NCC(=O)N[C@@H](CO)C(=O)NCC(=O)N[C@H](C(=O)N1CCC[C@H]1C(N)=O)[C@@H](C)O)[C@@H](C)O)[C@@H](C)O)[C@@H](C)O [Compound 10, Cys-Ser-Asn-Leu-Ser-Thr-Cys-Val-Leu-Gly-Lys-Leu-Ser-Gln-Glu-Leu-His-Lys(Gly-yGlu-eicosanedioic acid)-Leu-Gln-Thr-Tyr-Pro-Arg-Thr-Asn-Thr-Gly-Ser-Gly-Thr-Pro-NH2]  193.9%
